SMILES strings stand for the structures. “And” between values parts separate entries of the source, which are not always exact repeats. Identical values can stand only once. The campaign covered roughly 340,000 compounds. About 6,900 (2%) were called active. Cut-off read from the data, not from the text of the source: active = inhibition above about 30%; inactive = below that, where a call was filed. Only a part is listed here, and it is no random draw. Where no call is shown, the source filed none.

For the assay, the target named is D(2) dopamine receptor (Homo sapiens) (UniProt P14416). The assay is described as follows: HTS Assay for Allosteric Antagonists of the Human D2 Dopamine Receptor: Primary Screen for Antagonists. Note: 0% is about no effect. The settings on record: HEK293 TREx D2 cells, calcium flux, dopamine EC80; at 10 µM; stronger effect = higher value. An outline of the steps: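 Cells plated overnight at 30 C with tetracycline; no-wash calcium dye, 30–90 min RT; 10 s baseline; compound pinned; 180 s read; EC80 dopamine added; another 180 s read.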
Sequence of UniProt P14416 (P14416 whole entry, looked up): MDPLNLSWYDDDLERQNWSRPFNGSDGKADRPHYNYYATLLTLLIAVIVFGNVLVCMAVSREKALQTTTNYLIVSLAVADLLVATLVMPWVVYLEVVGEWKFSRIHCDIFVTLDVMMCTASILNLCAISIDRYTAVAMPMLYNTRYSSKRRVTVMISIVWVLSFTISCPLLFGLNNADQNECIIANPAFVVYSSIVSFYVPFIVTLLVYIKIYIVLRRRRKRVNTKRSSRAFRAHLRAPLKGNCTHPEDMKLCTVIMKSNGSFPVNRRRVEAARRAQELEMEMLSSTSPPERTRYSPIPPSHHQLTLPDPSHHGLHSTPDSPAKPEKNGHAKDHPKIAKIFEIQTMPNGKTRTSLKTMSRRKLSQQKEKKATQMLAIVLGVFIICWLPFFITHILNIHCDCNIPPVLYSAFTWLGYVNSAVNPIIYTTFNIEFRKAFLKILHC
In general terms: A change in cytosolic calcium serves as a functional read-out for many receptors and channels.
By inhibition is commonly meant the change of the read-out against control, counted positive when it falls. `CCOC(=O)c1cccc(NC(=O)Cn2c(=O)c3cccn3c3ccccc32)c1`: the inhibition is 8.86%.
In the case of `Cc1ccc(C(=O)c2sc(Nc3ccccc3)c(S(=O)(=O)c3ccccc3)c2N)c(C)c1` it was -4.96%; in that of `Cc1cc(C)n2nc(CNC(=O)c3c(F)cccc3F)nc2n1`, -5.74%.
`COc1ccccc1CNC(=O)c1ccc2[nH]c(C)c(C)c2c1`: the inhibition was 8.74%.
In the case of `COc1ccc(NC(=O)c2nnn(Cc3nc(-c4cc(OC)c(OC)c(OC)c4)oc3C)c2C)cc1Cl` it was -2.55%.
The value for `COc1ccc(OC)c(NS(=O)(=O)c2ccc(-n3cccn3)cc2)c1` was 11.1%; that for `CCCCNC(=O)C(CC)Sc1nc2ccccc2c(=O)n1Cc1ccco1` (centres undefined) was 10.3%.
Turning to `COCCCNC(=O)Cn1c(=O)n(-c2ccc(C)c(C)c2)c(=O)c2c3c(sc21)CCCCC3`, the inhibition is -6.66%.
Turning to `COc1ccccc1NC(=O)C1=C(C)Nc2nc(SCc3ccccc3)nn2C1c1cccc(O)c1` (centres undefined), the inhibition is 21.6%.
For the molecule `COc1ccc(NC(=O)c2ccc(NC(=O)N3CCSc4ncccc43)cc2)cc1`, the inhibition is -7.12%.
As to `COCCNC(=O)C1CCN(Cc2cc3ccccc3n2Cc2ccc(C)cc2)CC1`, the inhibition came out at 0.425%.
The value for `COCCn1c(CNC(=O)c2cccc(C)c2)nc2cccnc21` was -9.19%; that for `C/C(=N\Nc1ccc(Cl)c(C(=O)O)c1)c1ccc(N2CCOCC2)cc1` was active: 33.1%.
Take `O=C1CSC(c2ccccc2)N1CC12CC3CC(CC(O)(C3)C1)C2` (centres undefined): the inhibition was active: 37.5%.
In the case of `CCOC(=O)c1c(NC(=O)CSc2cn(CCNC(=O)c3ccc(OC)cc3)c3ccccc23)sc2c1CCCC2` it was 3.5%; in that of `COc1ccc(C2c3c(n(C)c4ccccc34)C(=O)N2CC(=O)Nc2cccc(Cl)c2)cc1` (centres undefined), 6.18%.
In the case of `Cc1cccc(CCNC(=O)c2cc3c(s2)-c2c(C)cccc2OC3)c1` it was -6.86%; in that of `COc1ccc(CNC(=O)c2ccc(-c3nc(CSc4ccc(C)cc4)c(C)o3)cc2)c(OC)c1`, 3.78%.
In the case of `Cc1ccc2c(c1)N(C(=O)Nc1cccc3c1CCCC3)CCO2` it was -18.8%.
`O=C(Nc1ccc2c(c1)OCCO2)c1cc2ccccc2o1`: the inhibition was active: 32.6%.
In the case of `CCCN1CCN(C(=O)Cn2c(-c3cccs3)cc3cc(F)ccc32)CC1` it was -0.495%; in that of `O=C(NCCc1ccccc1)c1ccc(Nc2nc3ccccc3n3nnnc23)cc1`, -7.23%; in that of `O=C(CN1C(=O)CC(c2ccccc2)=Nc2ccccc21)Nc1ccc(Br)cc1`, -3.26%.
`CNC(=O)c1ccc2c(c1)N(Cc1cc(C)ccc1C)C(=O)c1ccccc1S2`: the inhibition was -26.1%.
`COc1ccc(-c2noc(CSc3nnc(C)n3-c3cccc(C)c3)n2)cc1`: the inhibition is -6.82%.
Take `COc1ccc(O)c(C2=Nc3ccccc3N=C(c3ccccc3)C2)c1`: the inhibition came out at 4%.
Regarding `COc1cc(C(=O)NCCc2csc(-c3ccc(Cl)cc3)n2)cc(OC)c1OC`, the inhibition was -15.4%.
For the molecule `CCOC(=O)c1nc(Nc2ccc(C(=O)OC(C)C)cc2)c2ccccc2n1`, the inhibition worked out at 2.18%.
The value for `COc1ccccc1NC(=O)c1oc2ccccc2c1NC(=O)Cc1ccccc1` was -11.2%.
Regarding `Fc1ccc(-n2ncc3c(Nc4ccc5c(c4)OCCO5)ncnc32)cc1`, the inhibition worked out at 0.0105%.
For `Cc1ccc(N2CCN(C(=O)c3cc4cc5ccc(C)cc5nc4s3)CC2C)cc1` (centres undefined), the inhibition was -2.23%.
In the case of `Cc1ccc(Nc2sc(C(=O)c3ccccc3)c(N)c2S(=O)(=O)c2ccccc2)cc1Cl` it was 2.45%; in that of `CC(=O)c1ccc(OCC(O)CN2CCN(c3ccccn3)CC2)cc1` (centres undefined), active: 88.2%.
In the case of `CCc1ccc(CNC(=O)Cn2nc(-c3ccc(C)cc3)ccc2=O)cc1` it was 15.9%; in that of `COc1ccccc1N1CCN(C(=O)CCS(=O)(=O)c2ccc3c(c2)oc(=O)n3C)CC1`, -1.64%.
`O=C(c1ccccc1)c1c2c(cc3sc4ccccc4[n+]13)-c1cccc3cccc-2c13`: the inhibition was active: 44.5%.
As for `CCc1ccc(NCc2cc3ccc(OC)cc3n(CC(=O)Nc3c(C)cc(C)cc3C)c2=O)cc1`, the inhibition came out at 2.04%.
The value for `CC(C)Oc1ccc(C(=O)N(Cc2ccc(N(C)C)cc2)C2CCS(=O)(=O)C2)cc1` (centres undefined) was -13.6%.
For the molecule `Cn1nnc2c(N3CCN(c4ccc(F)cc4)CC3)ncnc21`, the inhibition is -8.33%.
In the case of `COc1ccc(Cl)cc1NC(=O)Cn1ccn(-c2cc(C)cc(C)c2)c(=O)c1=O` it was 15.4%; in that of `Cc1ccccc1CNC(=O)CCS(=O)(=O)c1cc2c3c(c1)CCN3C(=O)CC2`, -1.86%; in that of `CCOc1cccc(CNC(=O)c2ccc(N3CCCC3)c(NC(=O)NCc3ccccc3)c2)c1`, -18.1%.
Turning to `O=C(NCc1ccccc1)c1ccc2c(c1)CCN2S(=O)(=O)c1ccc(Cl)cc1`, the inhibition is -16.2%.
Take `CCn1cc(C(=O)NCCc2ccc(OC)c(OC)c2)c(=O)c2cc(S(=O)(=O)N(C)C3CCCCC3)ccc21`: the inhibition came to 17.1%.
The value for `COc1ccc(-c2noc(CN(C(=O)C(C)Oc3ccc(C)cc3)C(C)C)n2)cc1` (centres undefined) was -3.07%.
`COc1ccc2cc3c(N)nn(C(=O)c4ccccc4Cl)c3nc2c1`: the inhibition amounted to 20.4%.
In the case of `CCOc1ccc(NC(=O)N2CCN(c3ccc(Cl)c(Cl)c3)CC2)cc1` it was -18.9%; in that of `CCCn1cc(S(=O)(=O)CC(=O)NC2CCCCC2)c2ccccc21`, active: 50.5%.
For the molecule `Cc1cc(OC(C)C(=O)N(Cc2ccc(N(C)C)cc2)Cc2ccco2)ccc1Cl` (centres undefined), the inhibition was 4.56%.
In the case of `Cc1ccccc1C(=O)Nc1cccc(OCc2cc(=O)n3cccc(C)c3n2)c1` it was -15.1%; in that of `Cc1ccc(C)c(NC(=O)Cn2cc(S(=O)(=O)Cc3cccc(Cl)c3)c3ccccc32)c1`, 4.46%; in that of `CCc1ccc(NC(=O)CN2C(=O)CSc3ccc(S(=O)(=O)N(C)C)cc32)cc1`, -6.1%.
The value for `COc1cccc(NC(=O)Cn2cc(S(=O)(=O)Cc3ccccc3F)c3ccccc32)c1` was 0.145%; that for `CCOC(=O)N1CCN(Cc2nc3cc(NC(=O)c4cccc(C)c4)ccc3n2C(C)C)CC1` was 2.81%.
On to `Cc1ccc(S(=O)(=O)c2nnn3c2nc(NCc2cccs2)c2sccc23)cc1`, for which the inhibition is 14%.
The value for `O=C(c1cnn(-c2ccc(F)cc2)c1-n1cccc1)N1CCN(c2ccc(Cl)cc2)CC1` was 3.38%; that for `COc1ccccc1NC(=O)Cn1c(=O)c(CNc2ccccc2)cc2cc(OC)c(OC)cc21` was 0.527%.
In the case of `Cc1cccc(CNC(=O)c2ccc3c(c2)c(C)c(C)n3Cc2ccccc2)c1` it was 5.12%; in that of `COc1ccccc1C1C=C(c2ccc(C(C)C)cc2)Nc2nnnn21` (centres undefined), -1.17%.
In the case of `CSc1ncc(Cl)c(C(=O)N(Cc2ccc(C)cc2)C2CCS(=O)(=O)C2)n1` (centres undefined) it was 14%.
Consider `Cc1cc(C)cc(OCc2cc(=O)n3c(-c4ccccc4)csc3n2)c1`, for which the inhibition was determined as 14.3%.
With `Fc1ccc(-n2ncc3c(Nc4cccc(Cl)c4)ncnc32)cc1`, the inhibition was determined as 26.1%.
In the case of `COc1cc(OC)cc(-c2nc3nc(C)c(CCC(=O)Nc4ccc(C)cc4C)c(C)n3n2)c1` it was -1.6%; in that of `O=S(=O)(c1ccccc1)c1nnn2c1nc(NCc1ccc(Cl)cc1)c1sccc12`, -5.59%.
The value for `CCN(CC)S(=O)(=O)c1ccc(C(=O)Nc2nc3ccc(Cl)cc3s2)cc1` was 1.88%; that for `O=C1CCc2cc(S(=O)(=O)NCc3ccccc3Cl)cc3c2N1CC3` was 5%.
Regarding `O=C1NC(NS(=O)(=O)c2ccccc2)(C(F)(F)F)C(=O)N1c1ccc(F)cc1` (centres undefined), the inhibition was active: 32.9% and 15.6%.
In the case of `Cc1cc(N2CCC(C(=O)N(CC(C)C)CC(C)C)CC2)n2nc(C)c(-c3ccc(Cl)cc3)c2n1` it was -9.56%; in that of `COc1cccc(NC(=O)c2oc3ccccc3c2NC(=O)C2CCCCC2)c1`, 20.3%.
On to `CCc1ccccc1NC(=O)CCCN1C(=O)CCn2nc(-c3cn(C)c4ccccc34)cc21`, for which the inhibition is -26.9%.
The value for `COc1ccc(C(=O)/C=C/c2cn(CC(O)CN3CCc4ccccc43)c3ccccc23)cc1` (centres undefined) was -2.26%.
The value for `CCOc1ccc(NC(=O)CSc2oc(-c3ccccc3)nc2S(=O)(=O)c2ccc(Cl)cc2)cc1` was -4.32%; that for `COC(=O)c1cc(NC(=O)c2cc3sccc3n2Cc2ccc(Cl)cc2)cc(C(=O)OC)c1` was 7.35%; that for `CCOCc1cc(CN2CCN(c3ccccc3OC)CC2)c(O)c2ncccc12` was 1.82%.
In the case of `O=C(Cn1c(=O)n(Cc2nc(-c3ccccc3)no2)c(=O)c2ccccc21)Nc1cccc(Cl)c1` it was -17%; in that of `COc1ccc(S(=O)(=O)N2CCN(Cc3nc4ccc(C)cc4o3)CC2)cc1`, 10.1%.
With `COc1ccc(-c2c(C)c3ccc(O)c(CN4CCCC(C)C4)c3oc2=O)cc1OC` (centres undefined), the inhibition stood at 14.9%.
`O=C1CCc2cc(S(=O)(=O)NC(C(=O)Nc3cccc(F)c3)c3ccccc3)ccc2N1` (centres undefined): the inhibition is -9.7%.
Regarding `COCCCNC(=O)c1ccc2c(c1)N(Cc1ccccc1F)C(=O)c1ccccc1S2=O` (centres undefined), the inhibition was -5.44%.
In the case of `COc1ccc(-c2nnc(SCC(=O)Nc3ccc(C)c(C)c3)s2)cc1` it was -3.2%.
`CCOc1ccc(N2C(=O)c3[nH]nc(-c4ccc(OC)cc4)c3C2c2cccs2)cc1` (centres undefined): the inhibition was determined as 12.7%.
The value for `Oc1ccccc1Nc1nc2ccccc2n2nnnc12` was -0.618%.
For the molecule `O=C(NCc1ccco1)c1ccc2c(c1)N(Cc1ccc(Cl)cc1)C(=O)c1ccccc1S2(=O)=O`, the inhibition was 23.8%.
In the case of `CCN(CC(=O)Nc1cc(Cl)ccc1C)C(=O)CSCc1c(C)noc1C` it was active: 32.7%; in that of `COC(=O)c1nnn(-c2ccc(Br)cc2)c1C(=O)OC`, 0.354%.
`CN(Cc1ccccc1)c1ccc(-c2nc(-c3ccncc3)no2)cc1[N+](=O)[O-]`: the inhibition was 2.52%.
For `CCOC(=O)CC1C(=O)NCCN1c1nc2ccc(C)cn2c(=O)c1/C=C1\SC(=S)N(C(C)CC)C1=O` (centres undefined), the inhibition was active: 31.8%.
In the case of `CCOC(=O)CC(NC(=O)CCc1c(C)nc2ncnn2c1C)c1ccc(C)cc1` (centres undefined) it was 0.308%; in that of `O=C(NCCC1=CCCCC1)C1CCN(C(=O)N2CCOc3ccc(Cl)cc32)CC1`, -18.6%; in that of `Cc1cn2c(=O)c(S(=O)(=O)Nc3ccc(F)cc3F)c(C)nc2s1`, -8.81%.
With `COc1cccc(NC(=O)C2CCCN(S(=O)(=O)c3cccc4nonc34)C2)c1` (centres undefined), the inhibition is -7.86%.
As to `COc1ccc(C(=O)Nc2ccc3c(c2)CCCN3S(=O)(=O)c2ccc(C)cc2)c(OC)c1`, the inhibition is -21.6%.
`CCc1ccc(S(=O)(=O)c2cn(C)c3cc(N4CCCC4)c(F)cc3c2=O)cc1`: the inhibition was -8.01%.
The value for `CCOc1ccc(-n2c(SCC(N)=O)nc3c(oc4ccccc43)c2=O)cc1` was 11%.

The values are drawn from PubChem BioAssay AID485344 (National Center for Advancing Translational Sciences (NCATS), 2010).
